# Laboratory results from PubChem BioAssay AID1460 (National Center for Advancing Translational Sciences (NCATS), 2008).
# The campaign covered roughly 270,000 compounds. About 5,800 (2.1%) were called active. The inconclusive results got no clear call from the source; some entries with a clear call stand among them for comparison. The call rests on the fitted dose curve; in most records, active means well fitted inhibition curve with a large enough effect; inconclusive means small, poorly fitted or top-dose-only effect; inactive means flat fitted curve, though single readings scatter. Potencies of inconclusive entries are doubtful fits and often do not repeat.
# Biological target: Microtubule-associated protein tau (Homo sapiens) (UniProt P10636)
# Chain of UniProt P10636 (P10636 whole entry, looked up): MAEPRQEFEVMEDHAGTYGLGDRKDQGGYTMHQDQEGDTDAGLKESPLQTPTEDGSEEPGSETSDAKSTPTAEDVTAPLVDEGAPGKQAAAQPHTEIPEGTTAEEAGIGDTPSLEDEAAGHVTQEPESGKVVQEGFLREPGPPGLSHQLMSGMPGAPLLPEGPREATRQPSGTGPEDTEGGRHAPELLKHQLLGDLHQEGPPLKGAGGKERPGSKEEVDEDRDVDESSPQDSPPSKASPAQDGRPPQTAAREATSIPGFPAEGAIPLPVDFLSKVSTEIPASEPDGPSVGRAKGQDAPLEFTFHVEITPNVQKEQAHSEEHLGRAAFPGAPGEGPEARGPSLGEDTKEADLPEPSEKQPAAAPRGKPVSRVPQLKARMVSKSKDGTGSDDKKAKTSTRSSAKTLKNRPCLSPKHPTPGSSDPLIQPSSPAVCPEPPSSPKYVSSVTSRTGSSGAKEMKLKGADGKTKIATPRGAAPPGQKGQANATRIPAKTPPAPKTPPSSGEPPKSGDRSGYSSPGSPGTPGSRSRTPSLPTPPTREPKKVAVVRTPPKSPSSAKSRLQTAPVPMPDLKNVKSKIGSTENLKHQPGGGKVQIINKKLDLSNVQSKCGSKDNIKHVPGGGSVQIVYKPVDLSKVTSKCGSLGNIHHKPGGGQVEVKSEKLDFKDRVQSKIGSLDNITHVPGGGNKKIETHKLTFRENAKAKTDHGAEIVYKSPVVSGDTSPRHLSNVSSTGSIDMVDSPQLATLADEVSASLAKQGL
# Experiment: qHTS for Inhibitors of Tau Fibril Formation, Thioflavin T Binding; further: nearly all actives have a fitted effect of over 55% in size
# Conditions: recombinant tau K18 P301L, heparin-induced fibrillization, ThT fluorescence; series mostly up to 57.4 µM
# Method in brief: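 Fibril formation assay: tau K18 P301L at 15 uM with trace Alexa 594 label, heparin inducer 20 uM, pH 7 sodium acetate buffer, 37 C for 6 hr; endpoint ThT signal.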
# Potency means the concentration at half of the fitted maximal effect; tags describe the fitted curve by direction and shape.
row,Structure (SMILES),Potency
1,COc1cccc(NC(=S)N(CCc2c(C)[nH]c3ccccc23)Cc2ccco2)c1,"inconclusive: 10 µM [inhibitor, partial curve]"
2,CN(C)CCCN=c1cc(-c2ccccc2)oc2ccc(Cl)cc12,"inconclusive: 17.8 µM [inhibitor, partial curve]"
3,Cc1cccc(N/C(N)=N/c2nc(C)c(Cc3ccccc3)c(=O)[nH]2)c1,inactive
4,CC(C)(C)c1nc(SCC(=O)Nc2nc3c(s2)CCCC3)c2ccccc2n1,inactive
5,O=C(N/N=C/c1ccc(N2CCOCC2)o1)c1ccccc1[N+](=O)[O-],"inconclusive: 10 µM [inhibitor, partial curve]"
6,O=S(=O)(Nc1ccc(O)c(Sc2nc3ccccc3s2)c1)c1cc(Cl)ccc1Cl,"inconclusive: 22.4 µM [inhibitor, partial curve, poor fit]"
7,Cc1ccc2[nH]c(=O)c(CN(Cc3cccnc3)Cc3nnnn3CCN3CCOCC3)cc2c1,inactive
8,COc1cc(N/N=C(\C)c2ccc(N)cc2)nc(-c2ccccc2)n1,active: 15.8 µM
9,CCN(CC)c1ccc(/C=c2\sc3nc4ccccc4n3c2=O)c(O)c1,inactive
10,CCn1cc(C(=O)NCCC(C)C)c(=O)c2cc(S(=O)(=O)N(C)C3CCCCC3)ccc21,inactive
11,COc1ccc(N2C(=O)/C(=C/c3ccc([N+](=O)[O-])cc3)N=C2C)c(OC)c1,"inconclusive: 11.2 µM [inhibitor, partial curve]"
12,O=C1CC(O)(C(F)(F)F)Oc2c1ccc1ccccc21 (centres undefined),"inconclusive: 7.94 µM [inhibitor, partial curve]"
13,C/C(=N\Nc1ccc([N+](=O)[O-])cc1[N+](=O)[O-])c1cc2c(ccc3ccccc32)oc1=O,"inconclusive: 28.2 µM [inhibitor, partial curve, poor fit]"
14,CCn1c(SCC(=O)N2CCCCC2)nc2c(c1=O)SC(C)C2 (centres undefined),inactive
15,COc1ccccc1CNC(=O)CCc1c(C)c2cc3c(C)coc3cc2oc1=O,inactive
16,CCn1ccc2c(OCC(=O)Nc3ccc(OC)cc3OC)cccc2c1=O,inactive
17,Cc1ccc2nc(SCc3cn4cccnc4n3)[nH]c2c1,inactive
18,Cc1ccc2cc3c(NC(=O)c4ccco4)nn(C)c3nc2c1,"inconclusive: 25.1 µM [inhibitor, partial curve]"
19,O=C(COC(=O)c1c2c(nc3ccccc13)CCCCC2)c1ccc(Cl)s1,"inconclusive: 31.6 µM [inhibitor, single point]"
20,COc1cccc(-c2nc(CS(=O)(=O)CC(=O)N3CCN(c4ccccc4)CC3)c(C)o2)c1,"inconclusive: 25.1 µM [inhibitor, single point]"
21,CN(C)c1ccc(C(=S)Nc2ccccc2)cc1,"inconclusive: 11.2 µM [inhibitor, partial curve]"
22,CCc1cc(C(=O)c2ccc(OC)cc2)c(NC(=O)CN2CCCC2)s1,"inconclusive: 7.94 µM [inhibitor, full curve, poor fit]"
23,Cc1cc(C)c(CSc2ncc(-c3ccc([N+](=O)[O-])cc3)[nH]2)c(C)c1,active: 5.01 µM
24,CCOC(=O)c1snc(C(=O)NC2CCCCC2)c1N,"inconclusive: 15.8 µM [inhibitor, partial curve]"
25,COC(=O)CSc1cc(SCC(=O)OC)c(C#N)c(SCC(=O)OC)c1,"inconclusive: 12.6 µM [inhibitor, partial curve]"

row,Structure (SMILES),Potency
1,CC1=C(C#N)C(=O)NC(=O)/C1=C\c1ccc(-c2cc(C)c(C)cc2[N+](=O)[O-])o1,active: 25.1 µM
2,COc1ccc(Nc2ccccc2C(=O)O)cc1,inactive
3,Cc1ccc(O)c(NC(=O)c2cc(-c3ccc(F)cc3)no2)c1,"inconclusive: 17.8 µM [inhibitor, partial curve]"
4,NC1=NC(=O)/C(=C\c2ccco2)S1,active: 17.8 µM
5,O=S1(=O)N=C(Nc2nncs2)c2ccccc21,"inconclusive: 39.8 µM [inhibitor, single point]"
6,Cc1nc(-c2ccccc2)sc1C(=O)/C=C/c1ccc(Cl)cc1,"inconclusive: 14.1 µM [inhibitor, partial curve]"
7,Cc1ccc(C)c(NC(=O)Cc2nc(CCl)cs2)c1,inactive
8,COc1ccc(NC(=O)c2ccccc2F)cc1Cl,"inconclusive: 3.16 µM [inhibitor, full curve]"
9,Cc1ccc(OCC(=O)NCC2(N3CCN(C)CC3)CCCCC2)cc1,inactive
10,CC(=O)c1c(C)[nH]c(C(=O)COc2cc(C)ccc2C(C)C)c1C,inactive
11,COc1ccc(Nc2ncc(C(=O)Nc3cccc(Cl)c3)c3ccccc23)cc1,"inconclusive: 10 µM [inhibitor, partial curve]"
12,COC(=O)c1cc(C(=O)c2ccccc2)n2c(=O)/c(=C\N(C)C)sc12,inactive
13,O=C(CCCN1C(=O)/C(=C\c2ccco2)SC1=S)Nc1cccc2ccccc12,"inconclusive: 20 µM [inhibitor, partial curve]"
14,CCCOc1ccc(-c2nc(-c3ccc([N+](=O)[O-])cc3)cs2)cc1,"inconclusive: 8.91 µM [inhibitor, partial curve]"
15,COc1ccc(C(=O)NC(=S)Nc2ccc(NC(=O)c3ccco3)cc2)cc1[N+](=O)[O-],"inconclusive: 1 µM [inhibitor, full curve]"
16,COc1ccccc1NC(=O)c1cc2ccc(O)cc2o/c1=N\O,active: 7.08 µM
17,NS(=O)(=O)c1ccc(NC(=S)NCc2cccs2)cc1,inactive
18,O=Cc1ccc(-c2cc(Cl)ccc2Cl)[nH]1,"inconclusive: 28.2 µM [inhibitor, single point]"
19,COc1ccc(OC)c(S(=O)(=O)Nc2ccc(O)c3ccccc23)c1,active: 25.1 µM
20,O=C(O)CCCn1c(=S)[nH]c2c(sc3ccc([N+](=O)[O-])cc32)c1=O,"inconclusive: 22.4 µM [inhibitor, partial curve]"
21,COc1cc(N=Cc2c(O)[nH]c3ccccc23)cc(OC)c1OC,"inconclusive: 28.2 µM [inhibitor, partial curve]"
22,CCOCc1cc(CN2CCN(c3cccc(C(F)(F)F)c3)CC2)c(O)c2ncccc12,"inconclusive: 7.94 µM [inhibitor, partial curve]"
23,Cc1cccc(/C=C/C(=O)c2ccc(NC3=NCCCS3)cc2)c1,"inconclusive: 15.8 µM [inhibitor, partial curve]"
24,CC(=O)Nc1ccc(C(=O)n2nc(C)cc2C)cc1,inactive
25,Cc1cccc(NC(=O)C(=O)C2C(=O)Nc3ccccc32)c1 (centres undefined),"inconclusive: 7.08 µM [inhibitor, partial curve]"

row,Structure (SMILES),Potency
1,O=[N+]([O-])c1cc(Cl)cc(/C=N/NC(=S)Nc2cc(S(=O)(=O)N3CCOCC3)ccc2Cl)c1O,active: 3.16 µM
2,O=C(CSc1cccc2cccc(Cl)c12)NCc1cccs1,"inconclusive: 39.8 µM [inhibitor, single point]"
3,Cc1cc(C)c2c(=O)[nH]c(SCC(=O)N(C)C)nc2n1,inactive
4,COc1ccc(C)cc1NC(=O)CSc1nnc(-c2cc3cccc(OC)c3o2)n1N,"inconclusive: 0.708 µM [inhibitor, full curve, poor fit]"
5,COc1cc(S(=O)(=O)NCCc2c(C)[nH]c3ccc(C)cc23)ccc1Br,"inconclusive: 22.4 µM [inhibitor, partial curve]"
6,Cc1onc(-c2ccccc2Cl)c1C(=O)N/N=C(\N)COc1ccc(Cl)cc1,inactive
7,CCOc1ccc(CCNC(=O)c2cnc3c(-c4ccc(F)cc4)c(C)nn3c2C)cc1,inactive
8,COc1ccc2c(c1)OCc1c-2oc2cc(OC)ccc12,active: 8.91 µM
9,N=C1Sc2ccccc2C2=NCCCN12,active: 7.08 µM
10,c1ccc(-c2noc(-c3cccc4ccccc34)n2)nc1,"inconclusive: 22.4 µM [inhibitor, partial curve, poor fit]"
11,C/C(=N\Nc1ccc([N+](=O)[O-])cc1)c1ccc(-n2nncc2C)cc1,active: 7.08 µM
12,CS(=O)(=O)c1ccc2c(c1)sc1nc(=O)c(/C=C3/C=CC(=O)C(O)=C3)c(N)n12,active: 3.98 µM
13,CCOc1ccc(NC(=O)c2cc(SC)ccc2Cl)cc1,inactive
14,CCN(CC)S(=O)(=O)c1ccc(N=Nc2c(C)[nH]n(C(N)=S)c2=O)cc1,"inconclusive: 14.1 µM [inhibitor, partial curve]"
15,CCOc1ccc(NC(=O)CN(Cc2ccccc2)S(=O)(=O)c2ccc3nc(C)sc3c2)cc1,inactive
16,CN1CCc2nc3sc(C(=O)c4ccc(F)cc4)c(N)c3cc2C1,"inconclusive: 14.1 µM [inhibitor, partial curve]"
17,COc1cc(OC)cc(-c2nnc(Nc3nc4c(F)cccc4s3)o2)c1,"inconclusive: 5.01 µM [inhibitor, partial curve]"
18,CCC(C)S(=O)(=O)c1oc(-c2cccs2)nc1S(=O)(=O)c1ccccc1 (centres undefined),inactive
19,Cc1cc(Cl)c(OCCCn2ccnc2)c(Br)c1,inactive
20,CCC(C)n1cnc2c(c1=O)c1nc3ccccc3nc1n2Cc1ccccc1OC (centres undefined),inactive
21,Cc1ccc(C2=NN(C(=O)CSc3nc4ncc(Cl)cc4[nH]3)C(c3ccco3)C2)cc1 (centres undefined),"inconclusive: 15.8 µM [inhibitor, partial curve]"
22,COc1cc(SC#N)ccc1N=Cc1c(C)[nH]n(-c2ccc(C)c(C)c2)c1=O,active: 17.8 µM
23,Cc1cccc(N2CCN(C(=O)C3CCN(C(=O)c4cc5sccc5n4C)CC3)CC2C)c1 (centres undefined),"inconclusive: 20 µM [inhibitor, partial curve]"
24,COc1ccc(CN(C)c2ccc(-c3nc(-c4ccc(OC)c(OC)c4)no3)cc2[N+](=O)[O-])cc1,"inconclusive: 39.8 µM [inhibitor, single point]"
